Reference: the supplement of paper PMC10126150
Sequences with one replicate were seen in a single cluster, so their values are uncertain.

Tested on: ATP
Assay: switch fluorescence ratio, 500 uM ATP over buffer (Cy3 cluster intensity, sum of 5 cycles each) (fold (ratio)); higher = stronger signal-on switching upon ATP binding; sequences stand for … in TCGTCGGCAGCGTCAGATGTGTATAAGAGACAGTTTTTTTTTTTTTTTTTTTTTTTTT…TC
Conditions: aptamer strand: ATP DNA aptamer (quencher-CACCTGGGGGAGTATTGCGGAGGAAGG + anchor), 100 nM annealed; ATP concentration: 500 uM; one replicate
Method in brief: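 Switching-strand clusters labelled with Cy3 on a modified Illumina MiSeq flow-cell were annealed to 100 nM quencher-labelled ATP aptamer, imaged in selection buffer, and re-imaged after 15 min with 500 uM ATP at 22 °C. This was done over five cycles with NaOH stripping and re-annealing in between. The fluorescence ratio is summed target-cycle over summed buffer-cycle Cy3 intensity per cluster, averaged per switch-domain sequence, excluding clusters outside 100-1000 RFU.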
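Note: ATP exposure 15 min at 22 °C before imaging.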

Sequence | switch fluorescence ratio
TCGCTAGGCG | 0.979
TTTGGCATTG | 1.04
ACAGTTATAC | 1.29
AAGATTGTCT | 1
GGGACATGCA | 0.961
TTTCTTCAGG | 1.14
CGGAATTAGT | 0.999
ATTTTCAGTC | 0.961
GCATAGTTTT | 0.965
AATACGAGTG | 0.979
ATTGATTATC | 0.973
TCCGTTATT | 5.11
CTGGGTTTAG | 0.963
CTAAAGGAAT | 1
AGACTGGTT | 0.998
ATAATGGTGC | 1.01
CGTTATACA | 1.02
ACGCCTTCGG | 1.03
AAATTCTTGG | 1
GATAGATTGC | 0.954
GATCACCCGA | 1.03
GGGACCCCGG | 1.06
GCCAATGATG | 0.965

Sequence | switch fluorescence ratio
AATCGTGACA | 0.976
GAGCCTAAGC | 1.06
AGCTTGGTGG | 0.978
AACCGGGACT | 1.1
CTATCATGTT | 0.928
CGAGGGGTGT | 0.992
GAAGTCGGTC | 1.05
GCGGGTTAAC | 1.01
AATAGTGCTG | 1.02
TTCCGGTGCT | 1.31
GAATTTAATA | 1.02
CAGTATATT | 1.02
TTTCATAAGA | 1
GGGGCAAGTG | 0.972
TGATTTTCG | 1.02
CTACTCACGC | 1.38
TTTGTAGGCT | 0.995
TGGCGTAACA | 1
GACTGGACAT | 1.05
TTTAAACTAA | 1.03
TACCCGGGCG | 1.01
ACACTGGCGG | 1.06
ACCCCGCCTC | 1.9

Sequence | switch fluorescence ratio
TTGATTCCGC | 1.57
TCCTCACATT | 1.34
CGAAGTGCCA | 1.04
TCAAGTGTCT | 0.948
GAGATGGTGT | 1.03
AAAACGGTAT | 1.01
CGTCGTTAGC | 1.02
AAGGTGTTCT | 1.01
GCTACCCCGT | 1.38
CGTAGCCAGG | 1.19
GCTCAGGAGG | 1.06
TCTTGCTCTA | 1.01
GGGACACCAC | 1.13
AGCGCGAGAG | 1.05
GGATAACACT | 1.06
CACTTCTACA | 1.18
ACTTGCTTCA | 0.999
GCAGGGGTGG | 1.12
CGGCACCTGG | 1.06
GACCTCGGTC | 1
TCTATTGGAA | 0.983
ACAGTCTAGT | 1.02
CGTGGGACGG | 0.997

Sequence | switch fluorescence ratio
AGGTTGGGAG | 1.02
CCCGTTTATG | 1.06
GGACCCAAGT | 0.98
CAGTGATTCC | 1.05
TAACACGGTT | 0.994
CTAGTTTGCT | 0.917
CTCGTGGGTA | 1.02
TATGTTAGCG | 1
GCATGGAAGC | 1
GCAATATAGC | 1.4
TCTATATGCG | 0.995
ATTTGATGC | 0.985
TATGGGAGTG | 0.995
AGGGCACCGT | 0.968
AAGCGGACTG | 0.999
GCCCCTAGAT | 1.03
GCATCCTAAT | 0.963
ACCAGTCG | 1.09
TGTCCATTAG | 0.988
TATAGCACTC | 1.2
CCATGGATCG | 0.983
AATTGACAAA | 0.966
CTGGTTTTTA | 0.941

Sequence | switch fluorescence ratio
TTTGTAGAGG | 0.982
TAATATGA | 1
GGGTGTTCAC | 1
GCCAAAACGC | 0.975
CAGACTTAG | 0.989
TTGTAGTCAT | 1.07
CTTACCTTGG | 1.02
CCGGTAGATT | 1.06
CTGTGGTCAC | 1.01
CAGCCGAGG | 0.991
AGAGAATTGC | 0.966
CTCATTGGCG | 0.994
GATGTATTCT | 1.01
TACTAGGGCT | 1.04
TTGGCGCCCG | 1
GTGTCATTCG | 0.962
GTGGGAAAGA | 1.02
ATATGCTTGT | 0.973
CTATAATGGC | 1.06
GGCTTTTACC | 0.988
GGTGCACACG | 0.969
TCTATATA | 0.957
GGACTCAGCT | 1.07

Sequence | switch fluorescence ratio
GGGGGCCTGC | 1.02
ACGAGCGGGG | 1.04
TTTAGCACGT | 0.979
TTTCAGGTCA | 0.944
CAGGTGAA | 1.36
GGGCAATTAT | 1.02
GATAACCCTT | 0.989
TAACATGCTG | 1.04
ATTGGTTCAG | 1.01
GGTATATCCT | 1.02
CAATCCGGGT | 0.938
TGGTCACCCC | 1.04
TTACTGCGTG | 1.01
TTGCTACCCT | 1.1
AGTTCTGCAG | 1
TTCGAGTGGT | 0.977
TATAGGCAGA | 0.947
GCCGCTAGGG | 1.04
TCAGTAATCA | 1.02
CATGGCCGGG | 1.04
TAATTGGCGA | 1.03
GCCTGTTCGA | 1
ACGGTCACGT | 0.999

Sequence | switch fluorescence ratio
TGGTTGTCAC | 1
GGGCTGCTTA | 0.96
CAGGCTTATG | 1
CAAGACCTTG | 0.958
TGAGGCCCCC | 1.31
CGCCTAGATG | 1.02
GGGCATATAA | 1.07
GAGGGACAGT | 1.06
ATGACTTGGC | 1.03
GTTGGATCTA | 1.01
GGGGGCCGCG | 1
TCCATAAATC | 0.982
CAAGCTTTTG | 0.974
AATGTTGGTT | 0.948
CCCCCGGGA | 1.73
TATAGGGTT | 0.989
ATTAGTTTCT | 0.974
CCGCTAGGGT | 1.09
GCGAAAATTG | 0.959
